According to the supplement of paper PMC10126150:
Sequences with one replicate were seen in a single cluster, so their values are uncertain.

system: ATP; assay: switch fluorescence ratio, 500 uM ATP over buffer (Cy3 cluster intensity, sum of 5 cycles each) (fold (ratio)); higher = stronger signal-on switching upon ATP binding; sequences stand for … in TCGTCGGCAGCGTCAGATGTGTATAAGAGACAGTTTTTTTTTTTTTTTTTTTTTTTTT…TC; conditions: aptamer strand: ATP DNA aptamer (quencher-CACCTGGGGGAGTATTGCGGAGGAAGG + anchor), 100 nM annealed; ATP concentration: 500 uM; one replicate
Procedure, shortened: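 After annealing to 100 nM quencher-labelled ATP aptamer, Cy3-labelled switching-strand clusters on a modified Illumina MiSeq flow-cell were imaged in selection buffer. A second image followed after 15 min with 500 uM ATP at 22 °C, and five such buffer/ATP cycles were done, each separated by NaOH stripping and re-annealing. The fluorescence ratio, averaged per switch-domain sequence, is summed target-cycle over summed buffer-cycle Cy3 intensity per cluster, with clusters outside 100-1000 RFU excluded.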
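Also: ATP exposure 15 min at 22 °C before imaging.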

Row | Sequence | switch fluorescence ratio
1 | ATCAGACATT | 0.982
2 | ATCAGAGTTA | 1.04
3 | ATCAGAGTTG | 0.991
4 | ATCAGGAGTT | 0.976
5 | ATCAGTATT | 1.01
6 | ATCAGTGAGT | 0.983
7 | ATCAGTTCGA | 0.989
8 | ATCATAATCG | 1.06
9 | ATCATAATT | 1.01
10 | ATCATACTAA | 1.04
11 | ATCATAGGTA | 1.01
12 | ATCATAGTTC | 1.01
13 | ATCATATAGA | 0.999
14 | ATCATCGACT | 0.974
15 | ATCATCGGCC | 1.04
16 | ATCATGGTTA | 1.03
17 | ATCATGTTG | 0.972
18 | ATCATGTTGA | 1.02
19 | ATCATTAAGC | 0.983
20 | ATCATTACCA | 0.985
21 | ATCATTAGCT | 1.04
22 | ATCATTCCCA | 0.995
23 | ATCATTTGAT | 1.01
24 | ATCCAAGACA | 0.998
25 | ATCCAAGACG | 1.02
26 | ATCCACACGG | 1.2

Row | Sequence | switch fluorescence ratio
27 | ATCCATGTTT | 0.991
28 | ATCCATTTAG | 0.96
29 | ATCCATTTGG | 1.01
30 | ATCCCACGG | 1.12
31 | ATCCCAGTGG | 1.16
32 | ATCCCCCGTT | 1.07
33 | ATCCCCTGCC | 1.43
34 | ATCCCGTCTT | 1.08
35 | ATCCCTACAA | 1.03
36 | ATCCGACTTA | 1.03
37 | ATCCGAGACT | 1.06
38 | ATCCGCGACG | 1.66
39 | ATCCGCGTAA | 4.04
40 | ATCCGGGGCC | 1
41 | ATCCGTAACC | 1.59
42 | ATCCGTTAGA | 1.04
43 | ATCCTAAG | 1
44 | ATCCTACGCA | 3.91
45 | ATCCTACGGG | 1.12
46 | ATCCTACGT | 1.16
47 | ATCCTATAGT | 1.01
48 | ATCCTCGGGG | 1.26
49 | ATCCTCTAGT | 1.01
50 | ATCCTGCCAC | 1.28
51 | ATCCTGCGG | 0.961
52 | ATCCTTGTA | 1.01

Row | Sequence | switch fluorescence ratio
53 | ATCCTTTAGA | 1.01
54 | ATCCTTTCCA | 1.03
55 | ATCGAATAAG | 0.964
56 | ATCGAATTAA | 0.966
57 | ATCGACAGCA | 1.12
58 | ATCGACAGGG | 0.975
59 | ATCGACATAC | 1.94
60 | ATCGATGCTG | 1.06
61 | ATCGATGGAG | 1.01
62 | ATCGATTACC | 1.03
63 | ATCGCAGGAA | 1.14
64 | ATCGCAGTAA | 1.54
65 | ATCGCATCTG | 1.01
66 | ATCGCCCTCG | 0.993
67 | ATCGCGCCGA | 1.01
68 | ATCGCGTTA | 0.98
69 | ATCGCTAACA | 0.998
70 | ATCGCTG | 0.943
71 | ATCGCTGGCC | 1.02
72 | ATCGCTGTAT | 1.02
73 | ATCGCTTGCA | 0.996
74 | ATCGGAAAAC | 1.03
75 | ATCGGACCCC | 1.09
76 | ATCGGAGTAC | 0.994
77 | ATCGGTAGGG | 1
78 | ATCGGTCTCG | 0.934

Row | Sequence | switch fluorescence ratio
79 | ATCGGTGTCT | 0.948
80 | ATCGGTTGAG | 0.961
81 | ATCGTAAATA | 0.993
82 | ATCGTAATAG | 1.34
83 | ATCGTACCCT | 1.12
84 | ATCGTATACG | 1.08
85 | ATCGTATTCC | 1.01
86 | ATCGTCCAAT | 1.02
87 | ATCGTCTGGA | 1.02
88 | ATCGTCTTCA | 1
89 | ATCGTGAACG | 1.03
90 | ATCGTGATAC | 4.58
91 | ATCGTGGAGG | 1.01
92 | ATCGTTGAGT | 0.981
93 | ATCGTTGGTT | 1.01
94 | ATCGTTTACC | 1.03
95 | ATCTAAGCCA | 1.05
96 | ATCTAAGCCC | 0.962
97 | ATCTAAGTAC | 1.32
98 | ATCTACGATG | 1.02
99 | ATCTAGAATT | 1.01
100 | ATCTAGCAT | 1.02
101 | ATCTATAATG | 1.01
102 | ATCTATCCAG | 0.979
103 | ATCTATTATA | 1.02
104 | ATCTCAAGCA | 1.11

Row | Sequence | switch fluorescence ratio
105 | ATCTCATGTA | 1.02
106 | ATCTCATGTG | 0.997
107 | ATCTCTACTC | 1.02
108 | ATCTGACGAG | 0.98
109 | ATCTGGGTAA | 0.963
110 | ATCTGTTTAC | 0.992
111 | ATCTTAAACG | 1.03
112 | ATCTTAACAC | 1.01
113 | ATCTTACCTA | 1.07
114 | ATCTTACTAG | 1.04
115 | ATCTTATCG | 0.968
116 | ATCTTCCCCA | 1.25
117 | ATCTTCCCGC | 2.24
118 | ATCTTGGTA | 1.01
119 | ATCTTTCAAC | 0.976
120 | ATCTTTCAAG | 1.07
121 | ATGAAACCCC | 1.27
122 | ATGAAAGGTA | 1.03
123 | ATGAACCCGT | 1.04
124 | ATGAACCCTG | 0.993
125 | ATGAACCTGG | 0.989
126 | ATGAAGGCTC | 1.03
127 | ATGAAGTATT | 1.04
128 | ATGAATTGCC | 1.04
129 | ATGACACGCA | 1.16
130 | ATGACACGG | 1.02

Row | Sequence | switch fluorescence ratio
131 | ATGACAGAGG | 1.04
132 | ATGACATTAG | 1.03
133 | ATGACCGTC | 1.12
134 | ATGACCTCTG | 0.989
135 | ATGACGGCGC | 0.93
136 | ATGACGTACT | 0.901
137 | ATGACGTCTA | 0.968
138 | ATGACGTGT | 0.912
139 | ATGACTGGGG | 0.95
140 | ATGACTTAGC | 1.05
141 | ATGACTTGAT | 0.989
142 | ATGAGAAGAT | 1.04
143 | ATGAGATGTC | 1.19
144 | ATGAGGCTCG | 0.951
145 | ATGAGGTCCT | 0.998
146 | ATGAGTATAG | 0.992
147 | ATGAGTGCGG | 0.978
148 | ATGATAAGGA | 1.04
149 | ATGATATTGG | 0.975
150 | ATGATCCCAA | 1.05
151 | ATGATCCCCC | 1.1
152 | ATGATCCTAC | 0.999
153 | ATGATCGCCT | 1.03
154 | ATGATGACAA | 0.995
155 | ATGATGGTAC | 1.02
156 | ATGATGGTC | 0.992

Row | Sequence | switch fluorescence ratio
157 | ATGCAAGG | 1.04
158 | ATGCACGATA | 1.15
159 | ATGCACGGGA | 1.08
160 | ATGCACTATA | 1.07
161 | ATGCAGAAGC | 1.03
162 | ATGCAGCAAA | 1.03
163 | ATGCAGGTTG | 1.02
164 | ATGCATCATT | 0.995
165 | ATGCCAACCA | 1.01
166 | ATGCCCGGGA | 0.978
167 | ATGCCGCTGT | 1.05
168 | ATGCCGGATG | 1.01
169 | ATGCCGGCCG | 1.04
170 | ATGCCTCCC | 1.14
171 | ATGCCTCGGC | 0.981
172 | ATGCCTGAA | 1.21
173 | ATGCCTGCTG | 1.02
174 | ATGCCTGGGA | 0.993
175 | ATGCGAGCAC | 0.995
176 | ATGCGAGTAC | 1.02
177 | ATGCGAGTGT | 1.01
178 | ATGCGCACTC | 1.53
179 | ATGCGGATCG | 0.976
180 | ATGCGGTAAG | 0.997
181 | ATGCGGTGCG | 1.01
182 | ATGCTAGGCA | 0.975

Row | Sequence | switch fluorescence ratio
183 | ATGCTCCGGG | 1.1
184 | ATGCTCTCTA | 0.954
185 | ATGCTCTTGC | 0.998
186 | ATGCTGACCG | 1.01
187 | ATGCTGCGTC | 0.974
188 | ATGCTGCTCT | 1.12
189 | ATGGAACCCG | 1.02
190 | ATGGAAGATG | 0.958
191 | ATGGAAGATT | 0.973
192 | ATGGACACT | 1
193 | ATGGACATA | 0.992
194 | ATGGAGCGGT | 1.09
195 | ATGGAGTACG | 0.997
196 | ATGGAGTAGA | 1.04
197 | ATGGCAAGAA | 1.02
198 | ATGGCAAGCA | 1.1
199 | ATGGCATATG | 1.02
200 | ATGGCCAGCG | 1.01
201 | ATGGCCATGG | 0.942
